# Laboratory results from the supplement of paper PMC8728848.
# The other results are listed elsewhere or left out.
# Columns and labels:
# Experiment in all cases: glycan array binding signal (z-score within array); higher = stronger binding
# Details in all cases: glycan notation: IUPAC condensed, linker removed
# [1] = biological target: Glc(a1-2)Glc
# Method in brief: (§1)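 Glycan array data were curated from 3228 arrays in the Consortium for Functional Glycomics database and kept only where the protein sequence was available. Glycan names were converted to IUPAC-condensed notation, and columns mapping to the same glycan were averaged. The binding signal is a within-array Z-score, averaged across arrays of the same protein sequence at different concentrations or buffers and across linkers. Negative Z-scores can be read as non-binding.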
# [2] = biological target: Glc(a1-2)Glc(a1-2)Glc
# Method in brief: as §1
# [3] = biological target: Glc(a1-2)Glc(a1-2)Glc(a1-2)Glc
# Method in brief: as §1
# [4] = biological target: Glc(a1-2)Glc(a1-2)Glc(a1-2)Glc(a1-2)Glc
# Method in brief: as §1
# [5] = biological target: Glc(a1-2)Glc(a1-2)Glc(a1-2)Glc(a1-2)Glc(a1-2)Glc
# Method in brief: as §1
# [6] = biological target: Glc(a1-2)Glc(a1-2)Glc(a1-2)Glc(a1-2)Glc(a1-2)Glc(a1-2)Glc
# Method in brief: as §1
# [7] = biological target: Glc(a1-2)Glc(a1-2)Glc(a1-2)Glc(a1-2)Glc(a1-2)Glc(a1-2)Glc(a1-2)Glc
# Method in brief: as §1
# [8] = biological target: Glc(a1-2)Glc(a1-2)Glc(a1-2)Glc(a1-2)Glc(a1-2)Glc(a1-2)Glc(a1-2)Glc(a1-2)Glc
# Method in brief: as §1
# [9] = biological target: Glc(a1-3)Glc
# Method in brief: as §1
# [10] = biological target: Glc(a1-3)Glc(a1-3)Glc
# Method in brief: as §1
# [11] = biological target: Glc(a1-3)Glc(a1-3)Glc(a1-3)Glc
# Method in brief: as §1
# [12] = biological target: Glc(a1-3)Glc(a1-3)Glc(a1-3)Glc(a1-3)Glc
# Method in brief: as §1
# [13] = biological target: Glc(a1-3)Glc(a1-3)Glc(a1-3)Glc(a1-3)Glc(a1-3)Glc
# Method in brief: as §1
# [14] = biological target: Glc(a1-3)Glc(a1-3)Glc(a1-3)Glc(a1-3)Glc(a1-3)Glc(a1-3)Glc
# Method in brief: as §1
# [15] = biological target: Glc(a1-3)Glc(a1-3)Glc(a1-3)Glc(a1-3)Glc(a1-3)Glc(a1-3)Glc(a1-3)Glc
# Method in brief: as §1
# [16] = biological target: Glc(a1-3)Glc(a1-3)Glc(a1-3)Glc(a1-3)Glc(a1-3)Glc(a1-3)Glc(a1-3)Glc(a1-3)Glc
# Method in brief: as §1
# [17] = biological target: Glc(a1-3)Glc(a1-3)Glc(a1-3)Glc(a1-3)Glc(a1-3)Glc(a1-3)Glc(a1-3)Glc(a1-3)Glc(a1-3)Glc
# Method in brief: as §1
# [18] = biological target: Glc(a1-3)Glc(a1-3)Glc(a1-3)Glc(a1-3)Glc(a1-3)Glc(a1-3)Glc(a1-3)Glc(a1-3)Glc(a1-3)Glc(a1-3)Glc
# Method in brief: as §1
# [19] = biological target: Glc(a1-3)Glc(a1-3)Glc(a1-3)Glc(a1-3)Glc(a1-3)Glc(a1-3)Glc(a1-3)Glc(a1-3)Glc(a1-3)Glc(a1-3)Glc(a1-3)Glc
# Method in brief: as §1
# [20] = biological target: Glc(a1-3)Glc(a1-3)Glc(a1-3)Glc(a1-3)Glc(a1-3)Glc(a1-3)Glc(a1-3)Glc(a1-3)Glc(a1-3)Glc(a1-3)Glc(a1-3)Glc(a1-3)Glc
# Method in brief: as §1
# [21] = biological target: Glc(a1-4)Glc
# Method in brief: as §1
# [22] = biological target: Glc(a1-4)Glc(a1-4)Glc
# Method in brief: as §1
# [23] = biological target: Glc(a1-4)Glc(a1-4)Glc(a1-4)Glc
# Method in brief: as §1
# [24] = biological target: Glc(a1-4)Glc(a1-4)Glc(a1-4)Glc(a1-4)Glc
# Method in brief: as §1
# [25] = biological target: Glc(a1-4)Glc(a1-4)Glc(a1-4)Glc(a1-4)Glc(a1-4)Glc
# Method in brief: as §1
# [26] = biological target: Glc(a1-4)Glc(a1-4)Glc(a1-4)Glc(a1-4)Glc(a1-4)Glc(a1-4)Glc
# Method in brief: as §1
# [27] = biological target: Glc(a1-4)Glc(a1-4)Glc(a1-4)Glc(a1-4)Glc(a1-4)Glc(a1-4)Glc(a1-4)Glc
# Method in brief: as §1
# [28] = biological target: Glc(a1-4)Glc(a1-4)Glc(a1-4)Glc(a1-4)Glc(a1-4)Glc(a1-4)Glc(a1-4)Glc(a1-4)Glc
# Method in brief: as §1
# [29] = biological target: Glc(a1-4)Glc(a1-4)Glc(a1-4)Glc(a1-4)Glc(a1-4)Glc(a1-4)Glc(a1-4)Glc(a1-4)Glc(a1-4)Glc
# Method in brief: as §1
# [30] = biological target: Glc(a1-4)Glc(a1-4)Glc(a1-4)Glc(a1-4)Glc(a1-4)Glc(a1-4)Glc(a1-4)Glc(a1-4)Glc(a1-4)Glc(a1-4)Glc
# Method in brief: as §1
# [31] = biological target: Glc(a1-2)Glc(a1-3)Glc(a1-3)Man(a1-2)Man(a1-2)Man(a1-3)[Man(a1-3)[Man(a1-6)]Man(a1-6)]Man(b1-4)GlcNAc
# Method in brief: as §1
# [32] = biological target: Glc(a1-3)Glc(a1-3)Man(a1-2)Man(a1-2)Man(a1-3)[Man(a1-3)[Man(a1-6)]Man(a1-6)]Man(b1-4)GlcNAc
# Method in brief: as §1
# [33] = biological target: Glc(a1-3)Man(a1-2)Man(a1-2)Man(a1-3)[Man(a1-2)Man(a1-3)[Man(a1-2)Man(a1-6)]Man(a1-6)]Man(b1-4)GlcNAc(b1-4)GlcNAc
# Method in brief: as §1
# [34] = biological target: Glc(a1-6)Glc
# Method in brief: as §1
# [35] = biological target: Glc(a1-6)Glc(a1-6)Glc
# Method in brief: as §1
# [36] = biological target: Glc(a1-6)Glc(a1-6)Glc(a1-6)Glc
# Method in brief: as §1
# [37] = biological target: Glc(a1-6)Glc(a1-6)Glc(a1-6)Glc(a1-6)Glc
# Method in brief: as §1
# [38] = biological target: Glc(a1-6)Glc(a1-6)Glc(a1-6)Glc(a1-6)Glc(a1-6)Glc
# Method in brief: as §1
# [39] = biological target: Glc(a1-6)Glc(a1-6)Glc(a1-6)Glc(a1-6)Glc(a1-6)Glc(a1-6)Glc
# Method in brief: as §1
# [40] = biological target: Glc(b1-3)Glc
# Method in brief: as §1
# [41] = biological target: Glc(b1-3)Glc(b1-3)Glc
# Method in brief: as §1
# [42] = biological target: Glc(b1-3)Glc(b1-3)Glc(b1-3)Glc
# Method in brief: as §1
# [43] = biological target: Glc(b1-3)Glc(b1-3)Glc(b1-3)Glc(b1-3)Glc
# Method in brief: as §1
# [44] = biological target: Glc(b1-3)Glc(b1-3)Glc(b1-3)Glc(b1-3)Glc(b1-3)Glc
# Method in brief: as §1
# [45] = biological target: Glc(b1-3)Glc(b1-3)Glc(b1-3)Glc(b1-3)Glc(b1-3)Glc(b1-3)Glc
# Method in brief: as §1
# [46] = biological target: Glc(b1-4)Glc
# Method in brief: as §1
# [47] = biological target: Glc(b1-4)Glc(b1-4)Glc
# Method in brief: as §1
# [48] = biological target: Glc(b1-4)Glc(b1-4)Glc(b1-4)Glc
# Method in brief: as §1
# [49] = biological target: Glc(b1-4)Glc(b1-4)Glc(b1-4)Glc(b1-4)Glc
# Method in brief: as §1
# [50] = biological target: Glc(b1-4)Glc(b1-4)Glc(b1-4)Glc(b1-4)Glc(b1-4)Glc
# Method in brief: as §1
# [51] = biological target: Glc(b1-4)Glc(b1-4)Glc(b1-4)Glc(b1-4)Glc(b1-4)Glc(b1-4)Glc
# Method in brief: as §1
# [52] = biological target: Glc(b1-6)Glc
# Method in brief: as §1
# [53] = biological target: Glc(b1-6)Glc(b1-6)Glc
# Method in brief: as §1
# [54] = biological target: Glc(b1-6)Glc(b1-6)Glc(b1-6)Glc
# Method in brief: as §1
# [55] = biological target: Glc(b1-6)Glc(b1-6)Glc(b1-6)Glc(b1-6)Glc
# Method in brief: as §1
# [56] = biological target: Glc(b1-6)Glc(b1-6)Glc(b1-6)Glc(b1-6)Glc(b1-6)Glc
# Method in brief: as §1
# [57] = biological target: Glc(b1-6)Glc(b1-6)Glc(b1-6)Glc(b1-6)Glc(b1-6)Glc(b1-6)Glc
# Method in brief: as §1
binder,measurement,setting,value
"Dectin-1 (Mus musculus), Q6QLQ4 (protein) EYGHNSGRNPEEKDNFLSRNKENHKPTESSLDEKVAPSKASQTTGGFSQPCLPNWIMHGKSCYLFSFSGNSWYGSKRHCSQLGAHLLKIDNSKEFEFIESQTSSHRINAFWIGLSRNQSEGPWFWEDGSAFFPNSFQVRNTAPQESLLHNCVWIHGSEVYNQICNTSSYSICEKEL",glycan array binding signal (z-score),[1],-0.206
same,glycan array binding signal (z-score),[2],-0.206
same,glycan array binding signal (z-score),[3],-0.206
same,glycan array binding signal (z-score),[4],-0.206
same,glycan array binding signal (z-score),[5],-0.206
same,glycan array binding signal (z-score),[6],-0.206
same,glycan array binding signal (z-score),[7],-0.206
same,glycan array binding signal (z-score),[8],-0.177
same,glycan array binding signal (z-score),[9],-0.161
same,glycan array binding signal (z-score),[10],-0.182
same,glycan array binding signal (z-score),[11],-0.182
same,glycan array binding signal (z-score),[12],-0.182
same,glycan array binding signal (z-score),[13],-0.182
same,glycan array binding signal (z-score),[14],-0.182
same,glycan array binding signal (z-score),[15],-0.182
same,glycan array binding signal (z-score),[16],-0.182
same,glycan array binding signal (z-score),[17],0.026
same,glycan array binding signal (z-score),[18],-0.182
same,glycan array binding signal (z-score),[19],-0.182
same,glycan array binding signal (z-score),[20],-0.182
same,glycan array binding signal (z-score),[21],-0.182
same,glycan array binding signal (z-score),[22],0.129
same,glycan array binding signal (z-score),[23],0.094
same,glycan array binding signal (z-score),[24],0.06
same,glycan array binding signal (z-score),[25],-0.182
same,glycan array binding signal (z-score),[26],-0.127
same,glycan array binding signal (z-score),[27],0.137
same,glycan array binding signal (z-score),[28],-0.112
same,glycan array binding signal (z-score),[29],-0.182
same,glycan array binding signal (z-score),[30],-0.17
"Malectin (Homo sapiens), Q14165 (protein) MLGAWAVEGTAVALLRLLLLLLPPAIRGPGLGVAGVAGAAGAGLPESVIWAVNAGGEAHVDVHGIHFRKDPLEGRVGRASDYGMKLPILRSNPEDQILYQTERYNEETFGYEVPIKEEGDYVLVLKFAEVYFAQSQQKVFDVRLNGHVVVKDLDIFDRVGHSTAHDEIIPMSIRKGKLSVQGEVSTFTGKLYIEFVKGYYDNPKVCALYIMAGTVDDVPKLQPHPGLEKKEEEEEEEEYDEGSNLKKQTNKNRVQSGPRTPNPYASDNSSLMFPILVAFGVFIPTLFCLCRL",glycan array binding signal (z-score),[1],-0.417
same,glycan array binding signal (z-score),[31],-0.041
same,glycan array binding signal (z-score),[9],-0.049
same,glycan array binding signal (z-score),[32],5.02
same,glycan array binding signal (z-score),[33],-0.386
same,glycan array binding signal (z-score),[21],0.876
same,glycan array binding signal (z-score),[22],-0.403
same,glycan array binding signal (z-score),[23],-0.367
same,glycan array binding signal (z-score),[24],-0.172
same,glycan array binding signal (z-score),[25],-0.186
same,glycan array binding signal (z-score),[26],-0.012
same,glycan array binding signal (z-score),[34],-0.361
same,glycan array binding signal (z-score),[35],-0.342
same,glycan array binding signal (z-score),[36],0.25
same,glycan array binding signal (z-score),[37],0.943
same,glycan array binding signal (z-score),[38],2.06
same,glycan array binding signal (z-score),[39],0.441
same,glycan array binding signal (z-score),[40],-0.418
same,glycan array binding signal (z-score),[41],-0.418
same,glycan array binding signal (z-score),[42],-0.337
same,glycan array binding signal (z-score),[43],-0.329
same,glycan array binding signal (z-score),[44],-0.204
same,glycan array binding signal (z-score),[45],-0.176
same,glycan array binding signal (z-score),[46],-0.418
same,glycan array binding signal (z-score),[47],-0.412
same,glycan array binding signal (z-score),[48],-0.412
same,glycan array binding signal (z-score),[49],-0.418
same,glycan array binding signal (z-score),[50],-0.418
same,glycan array binding signal (z-score),[51],-0.386
same,glycan array binding signal (z-score),[52],-0.418
same,glycan array binding signal (z-score),[53],-0.418
same,glycan array binding signal (z-score),[54],-0.418
same,glycan array binding signal (z-score),[55],-0.418
same,glycan array binding signal (z-score),[56],-0.418
same,glycan array binding signal (z-score),[57],-0.418
